Data on five molecules can be found in publication PMC9525610.

The chains behind the UniProt entries cited, without tags or fusion partners. Where a name states a change or a piece, a line headed by the entry shows the natural chain unless it says otherwise. Residues count along the entry.
UniProt Q9NRC8: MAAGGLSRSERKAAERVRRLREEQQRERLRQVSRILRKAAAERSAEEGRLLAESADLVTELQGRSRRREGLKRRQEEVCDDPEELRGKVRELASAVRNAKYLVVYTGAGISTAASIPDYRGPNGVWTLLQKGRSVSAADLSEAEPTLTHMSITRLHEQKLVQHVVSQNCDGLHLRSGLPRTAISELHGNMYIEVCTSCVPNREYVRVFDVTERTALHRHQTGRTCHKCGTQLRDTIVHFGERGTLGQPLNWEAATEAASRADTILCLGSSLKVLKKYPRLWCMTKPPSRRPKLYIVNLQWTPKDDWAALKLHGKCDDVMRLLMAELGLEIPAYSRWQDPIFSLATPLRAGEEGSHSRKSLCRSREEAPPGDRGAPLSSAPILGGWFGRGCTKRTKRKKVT
Flag-SIRT7 ΔC (N-terminus with CC region, 1-330): residues 1-330 of Q9NRC8
Flag-SIRT7 ΔN (C-terminus with CC region, 91-400): residues 91-400 of Q9NRC8
Flag-SIRT7 catalytic core region (CC: 91-330): residues 91-330 of Q9NRC8

Assay [1] concerns the target T1, HA-OGT^TPR (human) (UniProt O15294).
T1 sequence: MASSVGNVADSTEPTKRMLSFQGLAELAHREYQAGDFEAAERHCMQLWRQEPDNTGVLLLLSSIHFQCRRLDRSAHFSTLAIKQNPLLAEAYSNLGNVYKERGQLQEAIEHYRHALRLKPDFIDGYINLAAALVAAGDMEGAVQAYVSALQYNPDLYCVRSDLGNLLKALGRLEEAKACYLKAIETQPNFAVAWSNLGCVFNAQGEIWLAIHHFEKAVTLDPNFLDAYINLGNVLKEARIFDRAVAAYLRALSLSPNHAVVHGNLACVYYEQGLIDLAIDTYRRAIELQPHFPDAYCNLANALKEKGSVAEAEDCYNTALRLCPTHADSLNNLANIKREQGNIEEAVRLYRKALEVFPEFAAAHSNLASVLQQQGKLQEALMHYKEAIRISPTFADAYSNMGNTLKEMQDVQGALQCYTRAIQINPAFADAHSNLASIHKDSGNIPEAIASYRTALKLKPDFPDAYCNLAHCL
Nature of the assay: co-IP; HEK293T cells transfected with HA-OGT and Flag-SIRT7 constructs; Pierce IP buffer; immunomagnetic beads coupled with anti-Flag/anti-HA antibody; washed with TBST (150 mM NaCl, pH 7.5); western blot.

Assay [2] addresses Flag-SIRT7 (UniProt Q9NRC8). The description is as above.
Assay [3] has as its target Flag-SIRT7 ΔC (N-terminus with CC region, 1-330) (UniProt Q9NRC8). Described as above.
Assay [4] addresses Flag-SIRT7 catalytic core region (CC: 91-330) (UniProt Q9NRC8). The assay is described as above.
The target of assay [5] is Flag-SIRT7 ΔN (C-terminus with CC region, 91-400) (UniProt Q9NRC8). The assay is described as above.
Assay [6] deals with SIRT7 in PDAC patient specimens (human (endogenous in PDAC patient tissue)) (UniProt Q9NRC8). Nature of the assay: proximity ligation; Duolink PLA, bright field, on PDAC patient tissue sections with anti-SIRT7 and anti-OGT antibodies.
Assay [7] has as its target endogenous SIRT7 (PANC-1 and MiaPaCa-2 cells) (human (endogenous in PANC-1 and MiaPaCa-2)) (UniProt Q9NRC8). Nature of the assay: co-IP; endogenous SIRT7 and OGT in PANC-1 and MiaPaCa-2 cells; antibodies with protein A/G agarose; western blot. (In general: Immunoblotting shows a protein as a band on a membrane.)

No constants are given. Whether binding was seen depends on the method and setting. Binding seen in cells or lysates may run through a third protein. Some entries that bind do so weakly or less than the wild type. For some assays here: Where a sequence is shown, tags or fusion partners need not be part of it.

For Flag-SIRT7 (from UniProt Q9NRC8 1-400), the binding entry in assay [1] is listed as “binds”.

B1: HA-OGT (enzyme, UniProt O15294 1-1046)
chain: MASSVGNVADSTEPTKRMLSFQGLAELAHREYQAGDFEAAERHCMQLWRQEPDNTGVLLLLSSIHFQCRRLDRSAHFSTLAIKQNPLLAEAYSNLGNVYKERGQLQEAIEHYRHALRLKPDFIDGYINLAAALVAAGDMEGAVQAYVSALQYNPDLYCVRSDLGNLLKALGRLEEAKACYLKAIETQPNFAVAWSNLGCVFNAQGEIWLAIHHFEKAVTLDPNFLDAYINLGNVLKEARIFDRAVAAYLRALSLSPNHAVVHGNLACVYYEQGLIDLAIDTYRRAIELQPHFPDAYCNLANALKEKGSVAEAEDCYNTALRLCPTHADSLNNLANIKREQGNIEEAVRLYRKALEVFPEFAAAHSNLASVLQQQGKLQEALMHYKEAIRISPTFADAYSNMGNTLKEMQDVQGALQCYTRAIQINPAFADAHSNLASIHKDSGNIPEAIASYRTALKLKPDFPDAYCNLAHCLQIVCDWTDYDERMKKLVSIVADQLEKNRLPSVHPHHSMLYPLSHGFRKAIAERHGNLCLDKINVLHKPPYEHPKDLKLSDGRLRVGYVSSDFGNHPTSHLMQSIPGMHNPDKFEVFCYALSPDDGTNFRVKVMAEANHFIDLSQIPCNGKAADRIHQDGIHILVNMNGYTKGARNELFALRPAPIQAMWLGYPGTSGALFMDYIITDQETSPAEVAEQYSEKLAYMPHTFFIGDHANMFPHLKKKAVIDFKSNGHIYDNRIVLNGIDLKAFLDSLPDVKIVKMKCPDGGDNADSSNTALNMPVIPMNTIAEAVIEMINRGQIQITINGFSISNGLATTQINNKAATGEEVPRTIIVTTRSQYGLPEDAIVYCNFNQLYKIDPSTLQMWANILKRVPNSVLWLLRFPAVGEPNIQQYAQNMGLPQNRIIFSPVAPKEEHVRRGQLADVCLDTPLCNGHTTGMDVLWAGTPMVTMPGETLASRVAASQLTCLGCLELIAKNRQEYEDIAVKLGTDLEYLKKVRGKVWKQRISSPLFNTKQYTMELERLYLQMWEHYAAGNKPDHMIKPVEVTESA
With B1, the binding result in assay [2] was “binds”; in assay [3], “no binding”; in assay [4], “no binding”; in assay [5], “binds”.

B2: HA-OGT-908A (enzyme, UniProt O15294 1-1046)
chain: MASSVGNVADSTEPTKRMLSFQGLAELAHREYQAGDFEAAERHCMQLWRQEPDNTGVLLLLSSIHFQCRRLDRSAHFSTLAIKQNPLLAEAYSNLGNVYKERGQLQEAIEHYRHALRLKPDFIDGYINLAAALVAAGDMEGAVQAYVSALQYNPDLYCVRSDLGNLLKALGRLEEAKACYLKAIETQPNFAVAWSNLGCVFNAQGEIWLAIHHFEKAVTLDPNFLDAYINLGNVLKEARIFDRAVAAYLRALSLSPNHAVVHGNLACVYYEQGLIDLAIDTYRRAIELQPHFPDAYCNLANALKEKGSVAEAEDCYNTALRLCPTHADSLNNLANIKREQGNIEEAVRLYRKALEVFPEFAAAHSNLASVLQQQGKLQEALMHYKEAIRISPTFADAYSNMGNTLKEMQDVQGALQCYTRAIQINPAFADAHSNLASIHKDSGNIPEAIASYRTALKLKPDFPDAYCNLAHCLQIVCDWTDYDERMKKLVSIVADQLEKNRLPSVHPHHSMLYPLSHGFRKAIAERHGNLCLDKINVLHKPPYEHPKDLKLSDGRLRVGYVSSDFGNHPTSHLMQSIPGMHNPDKFEVFCYALSPDDGTNFRVKVMAEANHFIDLSQIPCNGKAADRIHQDGIHILVNMNGYTKGARNELFALRPAPIQAMWLGYPGTSGALFMDYIITDQETSPAEVAEQYSEKLAYMPHTFFIGDHANMFPHLKKKAVIDFKSNGHIYDNRIVLNGIDLKAFLDSLPDVKIVKMKCPDGGDNADSSNTALNMPVIPMNTIAEAVIEMINRGQIQITINGFSISNGLATTQINNKAATGEEVPRTIIVTTRSQYGLPEDAIVYCNFNQLYKIDPSTLQMWANILKRVPNSVLWLLRFPAVGEPNIQQYAQNMGLPQNRIIFSPVAPAEEHVRRGQLADVCLDTPLCNGHTTGMDVLWAGTPMVTMPGETLASRVAASQLTCLGCLELIAKNRQEYEDIAVKLGTDLEYLKKVRGKVWKQRISSPLFNTKQYTMELERLYLQMWEHYAAGNKPDHMIKPVEVTESA
On to B2, for which the binding result in assay [2] is recorded as “binds”.

B3: OGT in PDAC patient specimens (enzyme, UniProt O15294 1-1046)
chain: MASSVGNVADSTEPTKRMLSFQGLAELAHREYQAGDFEAAERHCMQLWRQEPDNTGVLLLLSSIHFQCRRLDRSAHFSTLAIKQNPLLAEAYSNLGNVYKERGQLQEAIEHYRHALRLKPDFIDGYINLAAALVAAGDMEGAVQAYVSALQYNPDLYCVRSDLGNLLKALGRLEEAKACYLKAIETQPNFAVAWSNLGCVFNAQGEIWLAIHHFEKAVTLDPNFLDAYINLGNVLKEARIFDRAVAAYLRALSLSPNHAVVHGNLACVYYEQGLIDLAIDTYRRAIELQPHFPDAYCNLANALKEKGSVAEAEDCYNTALRLCPTHADSLNNLANIKREQGNIEEAVRLYRKALEVFPEFAAAHSNLASVLQQQGKLQEALMHYKEAIRISPTFADAYSNMGNTLKEMQDVQGALQCYTRAIQINPAFADAHSNLASIHKDSGNIPEAIASYRTALKLKPDFPDAYCNLAHCLQIVCDWTDYDERMKKLVSIVADQLEKNRLPSVHPHHSMLYPLSHGFRKAIAERHGNLCLDKINVLHKPPYEHPKDLKLSDGRLRVGYVSSDFGNHPTSHLMQSIPGMHNPDKFEVFCYALSPDDGTNFRVKVMAEANHFIDLSQIPCNGKAADRIHQDGIHILVNMNGYTKGARNELFALRPAPIQAMWLGYPGTSGALFMDYIITDQETSPAEVAEQYSEKLAYMPHTFFIGDHANMFPHLKKKAVIDFKSNGHIYDNRIVLNGIDLKAFLDSLPDVKIVKMKCPDGGDNADSSNTALNMPVIPMNTIAEAVIEMINRGQIQITINGFSISNGLATTQINNKAATGEEVPRTIIVTTRSQYGLPEDAIVYCNFNQLYKIDPSTLQMWANILKRVPNSVLWLLRFPAVGEPNIQQYAQNMGLPQNRIIFSPVAPKEEHVRRGQLADVCLDTPLCNGHTTGMDVLWAGTPMVTMPGETLASRVAASQLTCLGCLELIAKNRQEYEDIAVKLGTDLEYLKKVRGKVWKQRISSPLFNTKQYTMELERLYLQMWEHYAAGNKPDHMIKPVEVTESA
On to B3, for which the binding entry in assay [6] was “binds”.

B4: endogenous OGT (PANC-1 and MiaPaCa-2 cells) (enzyme, UniProt O15294 1-1046)
chain: MASSVGNVADSTEPTKRMLSFQGLAELAHREYQAGDFEAAERHCMQLWRQEPDNTGVLLLLSSIHFQCRRLDRSAHFSTLAIKQNPLLAEAYSNLGNVYKERGQLQEAIEHYRHALRLKPDFIDGYINLAAALVAAGDMEGAVQAYVSALQYNPDLYCVRSDLGNLLKALGRLEEAKACYLKAIETQPNFAVAWSNLGCVFNAQGEIWLAIHHFEKAVTLDPNFLDAYINLGNVLKEARIFDRAVAAYLRALSLSPNHAVVHGNLACVYYEQGLIDLAIDTYRRAIELQPHFPDAYCNLANALKEKGSVAEAEDCYNTALRLCPTHADSLNNLANIKREQGNIEEAVRLYRKALEVFPEFAAAHSNLASVLQQQGKLQEALMHYKEAIRISPTFADAYSNMGNTLKEMQDVQGALQCYTRAIQINPAFADAHSNLASIHKDSGNIPEAIASYRTALKLKPDFPDAYCNLAHCLQIVCDWTDYDERMKKLVSIVADQLEKNRLPSVHPHHSMLYPLSHGFRKAIAERHGNLCLDKINVLHKPPYEHPKDLKLSDGRLRVGYVSSDFGNHPTSHLMQSIPGMHNPDKFEVFCYALSPDDGTNFRVKVMAEANHFIDLSQIPCNGKAADRIHQDGIHILVNMNGYTKGARNELFALRPAPIQAMWLGYPGTSGALFMDYIITDQETSPAEVAEQYSEKLAYMPHTFFIGDHANMFPHLKKKAVIDFKSNGHIYDNRIVLNGIDLKAFLDSLPDVKIVKMKCPDGGDNADSSNTALNMPVIPMNTIAEAVIEMINRGQIQITINGFSISNGLATTQINNKAATGEEVPRTIIVTTRSQYGLPEDAIVYCNFNQLYKIDPSTLQMWANILKRVPNSVLWLLRFPAVGEPNIQQYAQNMGLPQNRIIFSPVAPKEEHVRRGQLADVCLDTPLCNGHTTGMDVLWAGTPMVTMPGETLASRVAASQLTCLGCLELIAKNRQEYEDIAVKLGTDLEYLKKVRGKVWKQRISSPLFNTKQYTMELERLYLQMWEHYAAGNKPDHMIKPVEVTESA
As for B4, the binding entry in assay [7] is on record as “binds”.
